From PubChem BioAssay AID1745849 (National Center for Advancing Translational Sciences (NCATS), 2022)
The campaign covered roughly 2,100 compounds. About 320 (15%) were called active. The inconclusive results got no clear call from the source; some entries with a clear call stand among them for comparison. Calls follow the shape of the dose curve; as a rule, active = well fitted cell-killing curve with a large enough effect; inconclusive = small, poorly fitted or top-dose-only effect, or effect the other way; inactive = flat fitted curve, though single readings scatter. A potency beside an inconclusive call is a rough fit, not a confirmed value.

Assay: Viability Counterscreen for CMV-Luciferase Assay of Inhibitors of ATXN expression; also: nearly all actives have a fitted effect of over 55% in size
Conditions: HEK-293 CMV-luciferase cells viability, protease fluorescence, 24 h
Procedure, shortened: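 Luminescence read-out: SteadyGlo added, 5 min RT, measured in CMV-luciferase HEK-293 cells after 24 hr compound treatment (several concentrations). Viability counterscreen: 25 uM Gly-Phe-7-amino-4-trifluoromethylcoumarin, 30 min at 37 degree C, fluorescence ex 405/em 540 nm.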
Potency is read from the fitted curve at half-maximal effect; tags tell the direction and shape of the fitted curve.

SMILES | Potency
CN(CC(=O)NCc1ccc(F)cc1)CC(=O)Nc1ccc(Cl)c(C(F)(F)F)c1 | inconclusive: 31.6 µM [cytotoxic, single point]
CCOC(=O)C1=CCN(S(=O)(=O)c2ccc(C)cc2)C1c1cccc(Cl)c1 (centres undefined) | inactive
O=S(=O)(c1ccc2c(c1)OCCO2)N1CCC(c2nc3ccc(Cl)cc3[nH]2)CC1 | inactive
Cc1cccc(C(=O)N/N=C2\CS(=O)(=O)N(C)c3ccsc32)c1 | inconclusive: 20 µM [cytotoxic, partial curve, poor fit]
CC(=O)NC(c1ccc2ccccc2c1)c1ccc2cccnc2c1O (centres undefined) | inconclusive: 0.501 µM [cytotoxic, full curve]
Oc1c(CN2CCCCC2)ccc2cccnc12 | inconclusive: 5.01 µM [cytotoxic, full curve]
NS(=O)(=O)c1ccc(N2N=C(c3ccccc3)CC2c2cccc(Br)c2)cc1 (centres undefined) | inconclusive: 39.8 µM [rising, single point]
O=C(N/N=C/c1ccccc1O)C1SCCCS1 | inconclusive: 3.98 µM [cytotoxic, full curve]
N#C/C(=C\Nc1ccc2cn[nH]c2c1)c1nc(-c2ccc(Cl)cc2)cs1 | inactive
CCOc1ccccc1NC(=O)CCCc1nc2ccccc2c(=O)[nH]1 | inactive
O=C(CCN1CCN(c2ccccc2)CC1)N/N=C/c1ccccc1O | inconclusive: 0.708 µM [cytotoxic, partial curve, poor fit]
O=C(/C=C\c1ccco1)Nc1nc(-c2ccc3ccccc3c2)cs1 | inconclusive: 3.16 µM [cytotoxic, partial curve, poor fit]
Cc1nn(Cc2ccc(Cl)cc2)c(C)c1NC(=O)c1noc2c1CCc1ccccc1-2 | inconclusive: 39.8 µM [cytotoxic, single point]
NS(=O)(=O)c1ccc(CCNc2nn3c(-c4cccc(OC(F)(F)F)c4)cnc3s2)cc1 | inactive
COc1cccc(CN2CCC2(C)C(=O)Nc2cccc3cccnc23)c1OC (centres undefined) | inactive
COc1ccc(-c2nnc(NC(=O)c3ccc(S(=O)(=O)N4COCC4(C)C)cc3)o2)cc1 | inactive
COc1cc(C#Cc2c(-c3cncn3C)n(C)c3ccc(-c4cc(OC)c(OC)c(OC)c4)cc23)cc(OC)c1 | inconclusive: 25.1 µM [cytotoxic, single point]
Cn1c(CCN2CCN(c3ccccn3)CC2)nc2cc(NC(=O)COc3ccc(Cl)cc3)ccc21 | inconclusive: 11.2 µM [cytotoxic, partial curve, poor fit]
O=C(Nc1ccc(OCC(F)(F)C(F)F)c(C(F)(F)F)c1)c1ccc(Cl)cc1 | inconclusive: 6.31 µM [cytotoxic, full curve]
Fc1ccc2[nH]c3c(N4CCSCC4)ncnc3c2c1 | active: 17.8 µM
CCOC(=O)c1c(-c2ccccc2)oc2ccc(OCC(=O)NN)cc12 | inconclusive: 3.16 µM [cytotoxic, full curve]
O=[N+]([O-])c1nn(-c2ccccc2)n(O)c1=NC1CCN(Cc2ccccc2)CC1 | inconclusive: 3.16 µM [cytotoxic, single point]
COc1cc(C=CC(=O)c2ccccc2)cc(OC)c1OC | inconclusive: 31.6 µM [cytotoxic, partial curve, poor fit]

SMILES | Potency
NS(=O)(=O)c1ccc(Sc2nc3ccccc3s2)c([N+](=O)[O-])c1 | inactive
Cc1cccc(OCCCC(=O)Nc2nccs2)c1 | inactive
Cc1cc(C)c(C(O)c2ncc(-c3cccc4ccccc34)[nH]2)c(C)c1 (centres undefined) | inactive
O=C(NCc1cc(C(F)(F)F)ccc1Cl)c1cccc2c1C(=O)c1ccc(N3CCC(N4CCCCC4)CC3)cc1S2(=O)=O | inconclusive: 20 µM [rising, partial curve, poor fit]
CCc1nc2ccccc2c(C(=O)OCC(=O)Nc2cccc(S(=O)(=O)NC3=NCCCCC3)c2)c1C | inconclusive: 17.8 µM [cytotoxic, partial curve, poor fit]
CN(C)CCNC(=O)c1cccc2[nH]c(-c3ccncc3)nc12 | inconclusive: 3.55 µM [cytotoxic, partial curve]
COc1cccc(NC(=O)/C=C/c2ccc(S(=O)(=O)N3CCOCC3)cc2)c1 | inactive
CCn1cc(C(=O)NCc2cccc(F)c2)c(=O)c2cc(F)c(N3CCN(C(=O)c4ccco4)CC3)cc21 | active: 22.4 µM
CCOC(=O)C1CCN(c2ncnc3c2cnn3-c2ccc(Cl)cc2)CC1 | inactive
CN(C)S(=O)(=O)c1cc(NC(=O)CSc2ncc(C(F)(F)F)cc2Cl)ccc1Cl | inconclusive: 28.2 µM [cytotoxic, single point]
O=C(CN1CCCc2ccccc21)N/N=C/c1ccccc1O | inactive
Cc1ccc(-c2cc(C(=O)N/N=C/c3ccccc3O)n[nH]2)o1 | inconclusive: 2.82 µM [cytotoxic, full curve]
CC(OC(=O)c1cc(Br)ccc1O)C(=O)Nc1ccc(S(=O)(=O)N2CCCC2)cc1 (centres undefined) | active: 28.2 µM
Cc1nc(-c2c(C(F)(F)F)noc2-c2ccc(O)cc2O)cs1 | inactive
O=C(CN1C(=O)c2ccccc2S1(=O)=O)Nc1ncc(Cl)cc1Cl | inactive
NC(=O)N/N=C/c1c(O)ccc2oc3c(c12)CCCC3 | inconclusive: 22.4 µM [cytotoxic, single point]
Cc1ccc(C(NC(=O)C2CCN(Cc3ccc(Cl)c(Cl)c3)CC2)c2ccccn2)cc1 (centres undefined) | inconclusive: 28.2 µM [cytotoxic, partial curve, poor fit]
CC1CCN(C(=O)c2cc3nc(-c4ccccc4)cc(-c4ccccc4)n3n2)CC1 | inactive
CCN1CCN(C2=C(NS(=O)(=O)c3ccc(C)cc3)C(=O)c3ccccc3C2=O)CC1 | inconclusive: 3.55 µM [cytotoxic, single point]
CC(=O)c1cccc(NC(=O)C2Cc3c(-c4cccc(C(C)=O)c4)ccnc3O2)c1 (centres undefined) | inactive
COc1ccc(S(=O)(=O)N(C)C)cc1NC(=O)C1CCN(c2ncnc3sc(C)c(C)c23)CC1 | inactive
Cc1cc(C(=O)N/N=C/c2cc(Br)cc([N+](=O)[O-])c2O)c2ccccc2n1 | inconclusive: 3.16 µM [cytotoxic, single point]
Cn1ncc2c(N3CCN(c4ccc(Cl)c(Cl)c4)CC3)ncnc21 | inconclusive: 5.01 µM [cytotoxic, partial curve, poor fit]

SMILES | Potency
Cc1cccc(C2CC(c3ccccc3)=NN2c2ccc(S(N)(=O)=O)cc2)c1 (centres undefined) | inconclusive: 35.5 µM [rising, partial curve, poor fit]
C=CCc1cccc(/C=N/NC(=O)CCC(=O)Nc2ccc(F)cc2)c1O | inconclusive: 3.16 µM [cytotoxic, full curve]
CN(CCOc1ccc(Br)cc1)CC(O)COc1ccc(C#N)cc1 (centres undefined) | inactive
CCOC(=O)c1cnc(-n2nc(C)cc2C)nc1NNc1nc(-c2ccccc2)cc(-c2ccccc2)n1 | inconclusive: 6.31 µM [cytotoxic, full curve, poor fit]
O=C1/C(=C/c2ccncc2)CCC/C1=C\c1ccncc1 | active: 5.62 µM
CCn1c(C)nc2cc(C(=O)N/N=C/c3cccc(OC)c3O)ccc21 | inconclusive: 0.794 µM [cytotoxic, full curve]
O=C(Nc1ccc(Oc2ccc(NC(=O)Nc3ccc([N+](=O)[O-])cc3)cc2)cc1)Nc1ccc([N+](=O)[O-])cc1 | active: 10 µM
CCn1cc(Cl)c(C(=O)N2N=C(c3ccc4ccccc4c3)CC2c2ccccc2O)n1 (centres undefined) | inconclusive: 28.2 µM [cytotoxic, single point]
O=C(NCc1ccccc1Cl)C1CCCN(C(=O)Nc2ccc(F)cc2)C1 (centres undefined) | inconclusive: 17.8 µM [cytotoxic, single point]
Cc1nc(N)nc(N)c1/C=C/C(C)(C)c1ccc(Cl)cc1 | inconclusive: 35.5 µM [cytotoxic, partial curve, poor fit]
CCc1nnc(NC(=O)c2ccc(S(=O)(=O)N(C)c3ccccc3)cc2)o1 | inactive
Cc1ccc2nc(NC(=O)/C=C/c3ccc4c(c3)OCO4)sc2c1 | inconclusive: 0.631 µM [cytotoxic, full curve]
Cc1ccc(C)c(NC(=O)CSc2n[nH]c(-c3ccccn3)n2)c1 | inconclusive: 25.1 µM [cytotoxic, single point]
O=C(/C=C/Nc1ccc(S(=O)(=O)Nc2ncccn2)cc1)c1ccc(Cl)c(Cl)c1 | inconclusive: 31.6 µM [rising, single point]
CC(NC(=O)Nc1cccc([N+](=O)[O-])c1)(C(F)(F)F)C(F)(F)F | inconclusive: 22.4 µM [cytotoxic, single point]
Cc1ccc(-c2ccc(/C=N/c3ncn[nH]3)o2)cc1Cl | inactive
CCOC(=O)c1c(-n2cccc2)sc2c1CCCC2=O | inactive
COc1ccc([C@@]2(C(C)C)ON(c3ccccc3C(F)(F)F)C2=O)cc1 | inactive
CCN(CC(=O)NC(C)(C)C)Cc1nc2c(Br)cc(Br)cc2c(=O)[nH]1 | inconclusive: 12.6 µM [cytotoxic, partial curve, poor fit]
COc1cccc2c1C(=O)C=C(C)C2=O | inconclusive: 15.8 µM [rising, partial curve]
CCCCn1c(N)c(S(=O)(=O)c2ccc(C)cc2)c2nc3ccccc3nc21 | inactive
CCn1cc(C(=O)NCCCN2CCCC(C)C2)c(=O)c2cc(S(=O)(=O)N3CCc4ccccc4C3)ccc21 (centres undefined) | inactive
CN(CC(=O)Nc1cccc(F)c1)CC(=O)Nc1cccc2ccccc12 | inactive
